Reference: PubChem BioAssay AID904 (National Center for Advancing Translational Sciences (NCATS), 2007)
Among all 55,000 compounds or so, about 530 (0.96%) were called active. Inconclusive means that the source gave no clear call. Such entries were picked first, then a sample of the others. Calls follow the shape of the dose curve; as a rule, active = well fitted cell-killing curve with a large enough effect; inconclusive = small, poorly fitted or top-dose-only effect; inactive = no such curve, though single readings can be large or run the other way. Potencies beside an inconclusive call are fits to weak or partial responses and may not hold up.

Assay: qHTS Screen for Compounds that Selectively Target Cancer Cells with p53 Mutations: Cytotoxicity of p53 Null Cells at the Nonpermissive Temperature; also: nearly all actives have a fitted effect of over 50% in size
Settings: H1299 p53-null (neo) cells, 39C, ATPlite viability, 24 h; series mostly up to 46.1 µM
Excerpt: NIH Chemical Genomics Center [NCGC] NIH Molecular Libraries Screening Centers Network [MLSCN] MLSCN Grant: 1 X01 MH079844-01 Assay Submitter (PI): Dr. SUN, YI, University of Michigan NCGC Assay Overview: Synthetic Lethal Screen for Compounds to Kill Cancer Cells with p53 Mutation. Tumor suppressor gene p53 serves as a major cellular barrier against tumorigenesis. […] The goal of this screening is to identify small molecule probes that selectively kill cancer cells with mutations in p53. This screening was carried out using two lines of H1299 lung cancer cells. The H1299-p53 A138V line express a temperature sensitive p53 mutant (p53ts) in which the mutant p53 protein (A138V) is in the mutant confirmation when grown at 39C (the nonpermissive temperature) and in the wild type conformation when grown at 32C (the permissive temperature). A H1299-neo line (p53 null) grown at both 39C and 32C were used as counter-screens to filter out false positive associated with temperature shifting. The small molecular compounds that selectively target mutant p53-containing cancer cells were selected as candidate probes for further study. A cytotoxicity assay based on the measurement of ATP contents in cells was used in this screen. Concentration-responses of all the compounds in the library collection were determined in qHTS using the cell lines and temperature conditions as above.
NCGC Assay Protocol Summary: Both the H1299-p53A138V and H1299-neo cell lines were provided by Dr.Yi Sun, a PI at the University Michigan. The cells were maintained and cultured at 37C. The resuspended frozen cells were used to plate the cells in the 1536-well assay plates at a density of 600 cells per well in 5 ul medium. The assay plates with the cells were incubated at 37C for 16 to 30 hours before the experiments. The library compounds in DMSO solution were added to the cells in assay plates and incubated 24 hours at 39C (for mutant p53 conformation) or 32C (for normal p53 conformation as control). An ATP_lite assay kit (PerkinElmer) was used to determine the cell viability. Tomaxifen (100uM) was used as the positive control for cell killing. Data were normalized to the controls for basal activity (DMSO only) and 100% killing (100uM tamoxifen). AC50 values were determined from concentration-response data modeled with the standard Hill equation. P53 assay protocol: 1. Reagent; 5 uL H1299-p53A138V or H1299-neo cell cells/well 2. Time; overnight; 37C incubation 3. Compounds; 23 nL; 5.9 nM to 46 uM 4. Controls; 23 nL; Tamoxifen 100 uM 5. Time; 24 hr; 39C incubation 6. Reagent; 3 uL; ATP_Lite reagent 7. Time; 20 min; Room Temperature 8. Detection; Luminescence; Viewlux plate reader Keywords: p53, synthetic lethal, cancer, cell viability, cytotoxicity, H1299 cell line, luminescence, MLSMR, MLSCN, NIH Roadmap, qHTS, NCGC
Potency is read from the fitted curve at half-maximal effect; tags tell the direction and shape of the fitted curve.

| Compound | Potency |
| --- | --- |
| COc1ccccc1-c1cc(C(F)(F)F)nc(S(=O)(=O)CCCC(=O)Nc2ccccc2F)n1 | inconclusive: 35.5 µM [cytotoxic, single point] |
| COc1ccc(Cn2c(SCc3ccc(C(=O)NC4CCCCC4)cc3)nc3cccnc32)cc1 | inactive |
| Cc1ccc(CNC(=O)c2cc3cc(C)ccc3n2C)cc1 | inconclusive: 1 µM [cytotoxic, full curve, poor fit] |
| COc1cccc(C(=O)Nc2nc3c(s2)CCCC3)c1 | active: 5.01 µM |
| Cc1ccc2sc(N(CCCN(C)C)C(=O)c3ccco3)nc2c1C | inconclusive: 35.5 µM [cytotoxic, single point] |
| O=C(c1cc(-c2ccccc2O)on1)N1CCCCC1 | inconclusive: 0.794 µM [cytotoxic, partial curve] |
| Cc1cc2nc(-c3cccc(NC(=O)C(C)C)c3C)oc2cc1C | inconclusive: 31.6 µM [cytotoxic, single point] |
| Cc1cc(C)cc(NS(=O)(=O)c2ccc3[nH]cc(C(=O)NC4CCCCC4)c(=O)c3c2)c1 | inconclusive: 17.8 µM [cytotoxic, partial curve, poor fit] |
| Cc1ccc(CCNC(=O)CCCn2c(=O)c3ccccc3n(Cc3ccccc3C#N)c2=O)cc1 | inconclusive: 7.94 µM [cytotoxic, partial curve] |
| Cc1ccc(NC(=O)CCCn2c(=O)c3cccn3c3ccccc32)cc1C | inconclusive: 22.4 µM [cytotoxic, single point] |
| COc1ccc(-c2nc(SCC(=O)Nc3ccc4c(c3)OCCO4)c(-c3ccc(F)cc3)[nH]2)cc1OC | inconclusive: 17.8 µM [cytotoxic, single point] |
| Cc1ccc(NC(=O)CN2C(=O)COc3ccc(S(=O)(=O)NC4CCCC4)cc32)cc1Cl | inactive |
| O=C(Cn1ncc(Cl)c(Cl)c1=O)N1CCN(S(=O)(=O)c2ccc3ccccc3c2)CC1 | inconclusive: 35.5 µM [cytotoxic, single point] |
| CCOC(=O)C1CCN(C(=O)Cn2ncc3c4ccccc4n(Cc4ccc(F)cc4)c3c2=O)CC1 | inconclusive: 0.0126 µM [cytotoxic, full curve, poor fit] |
| Cc1cc(C)c(/C=C/c2onc(C)c2S(=O)(=O)N2CCC(C(=O)NCc3ccccc3Cl)CC2)c(C)c1 | inconclusive: 0.224 µM [cytotoxic, full curve, poor fit] |
| CCOc1ccc(-c2cc3c(=O)n(CC(=O)Nc4cc(F)ccc4C)ccn3n2)cc1 | inconclusive: 0.0501 µM [cytotoxic, full curve, poor fit] |
| Cc1ccc(C(=O)/C=C2\NCCNC2=O)cc1 | inconclusive: 12.6 µM [cytotoxic, partial curve, poor fit] |
| COc1ccc(Br)cc1CNC(=O)c1ccc2c(c1)nc1n2CCC(C)C1 (stereo unspecified) | inactive |
| COc1ccc(NC(=O)c2c(NC(=O)c3ccncc3)sc3c2CCC(C(C)(C)C)C3)cc1 (stereo unspecified) | inactive |
| CCOc1ccc(N(CC(=O)Nc2ccccc2CC)S(=O)(=O)c2c(C)noc2C)cc1 | inconclusive: 0.316 µM [cytotoxic, full curve, poor fit] |
| Cc1cc(S(=O)(=O)NCC(c2ccco2)S(=O)(=O)c2cccs2)ccc1F (stereo unspecified) | inactive |

| Compound | Potency |
| --- | --- |
| COc1ccc(NC(=O)CSc2nnc(NC(=O)NC3CCCCC3)s2)cc1OC | active: 11.2 µM |
| Cc1ccc(CNC(=O)c2c[nH]n3c(=O)c(Cc4ccc(Cl)cc4)c(C)nc23)cc1 | inconclusive: 35.5 µM [cytotoxic, single point] |
| CC(=O)c1ccc(NS(=O)(=O)c2ccc3[nH]c4c(c3c2)CCCC4)cc1 | inactive |
| COc1ccc(C2=C(N3CCN(c4cccc(C)c4)C(C)C3)c3ccccc3C2=O)cc1 (stereo unspecified) | inconclusive: 31.6 µM [cytotoxic, partial curve] |
| COc1ccc(CNCCC(c2ccc3c(c2)OCO3)c2ccccc2OC)cc1 (stereo unspecified) | active: 12.6 µM |
| Cc1cccn2c(=O)c(C(=O)NCCc3ccccc3)cnc12 | inconclusive: 11.2 µM [cytotoxic, partial curve, poor fit] |
| COc1cc(C)cc2oc(=O)c(CC(=O)NCCc3ccc(Cl)cc3)c(C)c12 | inconclusive: 31.6 µM [cytotoxic, single point] |
| COc1cccc(C(=O)NC2=NCCS2)c1 | inconclusive: 11.2 µM [cytotoxic, single point] |
| CCOC(=O)C(C(C)=O)C(c1ccc(OCCC(C)C)cc1)C(C(C)=O)C(=O)OCC (stereo unspecified) | inconclusive: 0.0398 µM [cytotoxic, full curve, poor fit] |
| COc1ccccc1CCNC(=O)C(=O)NCC(c1cccnc1)N1CCN(c2ccccc2)CC1 (stereo unspecified) | inconclusive: 0.126 µM [cytotoxic, full curve, poor fit] |
| CCCN1CCN(CCCNC(=O)c2cc3c(s2)-c2ccccc2OC3)CC1 | inconclusive: 15.8 µM [cytotoxic, single point] |
| COc1cccc(NC(=O)/C(C#N)=C/c2ccc(-c3ccc(C)cc3)o2)c1 | inactive |
| Cc1ccc(-n2nc(C)c(C(=O)NCCCN3CCN(c4cccc(Cl)c4)CC3)c2-n2cccc2)cc1 | inconclusive: 10 µM [cytotoxic, partial curve] |
| Nc1ccc2oc(-c3ccccc3Br)nc2c1 | active: 12.6 µM |
| O=C(Nc1noc2ccccc12)c1cccc(Cl)c1Cl | inconclusive: 0.631 µM [cytotoxic, full curve, poor fit] |
| CCCNC(=O)Cn1nc(-c2ccc(C)c(C)c2)c2cnc3ccc(OC)cc3c21 | inactive |
| CCc1ccc(N(CC)C(=O)c2sc3nc4n(c(=O)c3c2C)CCCC4)cc1 | inconclusive: 11.2 µM [cytotoxic, partial curve, poor fit] |
| CCC(C)NC(=O)CSCc1nc(-c2ccc(C)cc2)oc1C (stereo unspecified) | inactive |
| CC(C)c1cnc2c(c1SCC(=O)Nc1ccc(C(N)=O)cc1)c(=O)n(C)c(=O)n2C | inactive |
| CN(C)CCNC(=O)C(=O)NCC(c1cccnc1)N1CCN(c2ccccc2)CC1 (stereo unspecified) | inconclusive: 10 µM [cytotoxic, partial curve, poor fit] |
